Source: the supplement of paper PMC3334620
In all, about 33,000 sequences were measured (“E-score (-0.5 to 0.5)”: median about -0.012, highest 2% from about 0.27 on). The list shows a part of the results.

target: T1, Vhr1 (UniProt P40522); test: PBM E-score (8-mer binding enrichment) (E-score (-0.5 to 0.5)); higher = stronger / more preferred TF binding; most listed sequences are background and not binding sites; conditions: protein concentration: 200 nM; construct: GST-full length
T1 sequence: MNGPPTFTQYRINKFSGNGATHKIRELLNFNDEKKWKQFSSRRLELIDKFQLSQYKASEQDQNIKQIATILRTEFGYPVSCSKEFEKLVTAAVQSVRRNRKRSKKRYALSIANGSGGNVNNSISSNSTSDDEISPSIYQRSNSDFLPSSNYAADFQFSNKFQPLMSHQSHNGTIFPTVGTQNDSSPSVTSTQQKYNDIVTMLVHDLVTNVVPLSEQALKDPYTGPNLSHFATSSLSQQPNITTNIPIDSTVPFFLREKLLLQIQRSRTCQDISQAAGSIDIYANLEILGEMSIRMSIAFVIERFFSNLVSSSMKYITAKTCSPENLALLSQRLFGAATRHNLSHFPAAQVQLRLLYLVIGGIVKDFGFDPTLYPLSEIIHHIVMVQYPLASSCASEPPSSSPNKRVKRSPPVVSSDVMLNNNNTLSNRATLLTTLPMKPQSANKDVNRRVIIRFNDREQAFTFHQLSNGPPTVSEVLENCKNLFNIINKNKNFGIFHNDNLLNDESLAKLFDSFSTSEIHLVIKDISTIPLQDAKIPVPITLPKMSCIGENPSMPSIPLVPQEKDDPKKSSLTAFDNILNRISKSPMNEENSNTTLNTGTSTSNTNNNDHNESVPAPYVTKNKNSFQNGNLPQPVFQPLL
Procedure, shortened: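 GST-tagged yeast TFs (full-length or DNA-binding domain) were made by PURExpress in vitro transcription/translation and applied at about 100-200 nM to universal all-10-mer Agilent arrays. The arrays were made double-stranded by primer extension, on fresh or once-stripped slides. Bound protein was detected with fluorescent anti-GST, and scans were normalised with masliner. Each ungapped eight-base word, pooled with its reverse complement, received an E-score (modified Wilcoxon-Mann-Whitney statistic) from the Universal PBM Analysis Suite.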

Sequence	PBM E-score
CAAGCTAA	-0.0807
ACGCCAGA	0.0884
AGACTCCG	0.225
CGATTGAC	-0.0458
ATACGGGA	-0.00269
ACCCGACA	0.0145
CCTATATA	0.0584
AACCGTCC	-0.107
ATTAAGAG	-0.0917
ACCAGCCC	0.168
GATGCCAC	-0.159
AGTTTCGC	-0.0377
ACCTTAAC	-0.135
GGTGTATA	-0.0925
CATGTAGA	0.00603
GCTGGATA	0.0633
ATCTGCAC	-0.141
GACTTTCC	-0.0868
AGACGATG	0.0858
CACCACAC	0.0911
CGTGACAG	-0.046
ATCCGACA	0.0761
AGCGCGGG	0.248
CCGAAGCA	0.0447
CAACATTG	0.162

Sequence	PBM E-score
AACAGATA	-0.0167
ACCTATAA	-0.0283
CTGCTGTC	0.119
ATCGAGTC	0.248
ACCAGGCC	-0.0551
TAAATCGA	-0.0427
CAGTGGGG	-0.168
GAGGAAAC	-0.0889
CCCGCTAA	-0.0681
GATGCCTA	-0.169
GCGGTGCC	0.0693
GACTTACA	-0.0564
CACTAGTA	-0.0153
TTCATCAA	0.0812
TATTCTAA	-0.0256
TAGCATGA	0.209
CGATCGAC	-0.118
ATTCAATA	-0.0197
ACAGGAAT	-0.0744
GCGGCTAA	-0.0238
GACCAGGA	-0.0188
TGGGTGAA	0.23
CACCTGAG	-0.0144
CGAATATC	-0.12
AGGATAAG	-0.0484

Sequence	PBM E-score
AGGTAAGA	-0.114
CTAGCGAG	-0.151
ATCAACAT	0.162
CCAGTCCC	-0.0506
TGCCTCCA	-0.263
CAGCGTGC	0.139
ATTTTCAC	0.0314
AACCAATG	0.209
AATTATAG	0.0858
GCGTATGA	0.0514
AAGCCAAC	-0.0924
ATCAGTAC	0.126
CAGACCCG	0.203
ACGGGCAA	-0.126
CTACTATC	0.277
CAATTCAG	-0.00259
GTCTAAAC	0.00959
TTCGTCAA	0.0712
AAGAACGT	0.101
CCCCATGC	-0.0398
ATCACCTA	0.121
TAAACAGA	0.017
CTCAAGCA	-0.124
AATCATGC	0.304
CATTCTGC	-0.0605

Sequence	PBM E-score
GAGGATCC	-0.0377
GTCTCGTA	-0.123
ACACATGC	0.229
CACGACGA	0.0185
ATCCGTTC	0.0206
AATACAAT	0.00406
AACGGTGA	0.0551
CAAAACGA	0.103
ATGAGATC	-0.0692
CAAATTAA	-0.164
AAGTGGAG	0.0941
TCGATAGA	-0.095
TCGTTAAA	-0.303
CACATCTC	0.0374
TCATCAAA	0.0877
ACCCATCC	0.158
GAGCAATA	0.0174
AGCACTTC	-0.213
AAGTGGGG	-0.115
CATTAGTA	0.106
GAATGACC	0.00381
ACGCCTAC	-0.119
AATAGTTA	0.0641
CCTTCCGC	-0.212
CCTCCAAG	-0.0612

Sequence	PBM E-score
ACCGTTAT	-0.0316
ACTCATCA	0.32
AGGCACCA	-0.0307
AATCGATA	0.0646
AGAGCCCG	-0.0324
ATTAACAA	0.159
GAACACCA	-0.0163
CCCACGAG	0.132
ACGTGGAG	-0.0818
AGACTGTC	-0.0702
CCGGCTAC	0.107
ATGCCCTA	-0.316
CCTCTTCG	-0.184
CTTGCCTC	-0.133
GCGATGGA	0.0536
AGTATATA	0.33
CGCCCCAC	0.261
AGCTTGCC	-0.265
AGGACTCC	0.129
AACGAGCC	-0.00132
CCACTAGA	-0.292
CATAAATA	-0.0195
CGGTGTAC	0.0367
CTGAAAAC	-0.287
ATACTGAC	0.181

Sequence	PBM E-score
TCGAACGA	-0.0073
GAGGTATC	0.0778
CCAAATAG	0.0404
ACTCATAA	0.164
CTCTAAAG	-0.211
AGCTCATG	0.0505
ACGCAACC	-0.0121
AAGGGCAC	-0.107
GCATTGCA	-0.00744
CGGAGTCC	0.324
CGCGGCTA	-0.0223
ACCACCTA	0.011
CACTGAAC	0.109
ACGCGGTC	0.0101
ATCCCTAG	-0.117
CTGACGCC	-0.19
AAAGGTAG	-0.239
CTGCCCCC	-0.162
AACATCGT	0.112
CGTTGGCA	-0.111
CGGGTCGA	0.186
ACATGTGC	0.117
ACGGATTG	-0.0408
GATGCTGC	-0.116
AAAGGGTG	-0.109

Sequence	PBM E-score
CCTACCGA	-0.0507
GACCTCTC	0.00701
CTCGGAAG	-0.00017
AACTACCG	-0.186
CTAGAGAC	-0.229
GGGGTTGA	0.00987
GATAAACC	0.0749
ACTCCTTC	0.0981
CGGCTTTC	-0.18
AGCTAGAG	-0.124
ACCCCTCT	-0.0505
GTTAGGCA	-0.108
CGCAATCC	-0.0979
AATTACTC	0.0905
ACTGTCAG	0.101
ACCGTGTG	0.155
GAGGTCTA	-0.0738
AGTAGCAG	-0.00936
ATCGCGAG	0.169
GAAGTTAC	0.0846
GATTGTAC	-0.113
CCAATACA	-0.00307
